# Source: ChEMBL document CHEMBL4888484, “Replenishing the malaria drug discovery pipeline: Screening and hit evaluation of the MMV Hit Generation Library 1 (HGL1) against asexual blood stage Plasmodium falciparum ,using a nano luciferase reporter read-out” (2022)
# In all, about 150,000 compounds went through this assay and about 540 (0.36%) showed an effect of 50% or more. Some of the results follow.
# System: Plasmodium falciparum
# Experiment: Primary screen in NF54 nanoGlo assay, in single point, at 2uM, 72h; a lower Z score goes with more inhibition
# Format: functional, Erythrocyte
# Details: timepoint 72 hour
SMILES,% Inhibition [%],Z score
Cc1noc(C)c1-c1nc2cccc(Cl)c2[nH]1,-12,2.22
CCc1noc(C)c1C(=O)N1CC[C@H]2[C@H](CCC(=O)N2CCCO)C1,-11,1.88
CCN1CCCN(Cc2cc3ccccc3[nH]c2=O)CC1,35,-3.91
O=S(=O)(NCc1ccccc1)N1CCC[C@@H]1Cn1cccn1,10,-0.9
Cc1onc(-c2ccccn2)c1C(=O)Nc1cc(CC2CCCCC2)n[nH]1,-2,0.31
Cc1nc(C)c(C(=O)N2CCO[C@H](C(=O)Nc3ccccc3F)C2)s1,-17,1.71
CCCN1CC2(CCN(C(=O)c3n[nH]c4c3CCCC4)CC2)C[C@H]1C(=O)O,-10,1.19
O=C(c1cccnc1)N1CC[C@H](c2nnc(-c3ccncc3)o2)C1,32,-3.58
COc1ccccc1N(C(=O)COc1cccc(Br)c1)S(=O)(=O)c1ccc(NC(=O)COc2cccc(Br)c2)cc1,-2,0.39
O=C(NCc1cccnc1)c1coc(CN(Cc2ccccc2)Cc2ccccc2C(F)(F)F)n1,0,0.02
CN(Cc1ccc2cc(Cl)ccc2n1)C[C@H]1CCCN(CCO)C1,-9,1.24
Cc1ccc(F)cc1NC(=O)Cn1cc(S(=O)(=O)N2CCCCCC2)ccc1=O,-10,1.98
Cc1cccc(N(C)C(=O)[C@H]2CCc3nnnn3CC2)c1,-5,1
C[C@@H](CCCCNC(=O)c1cc[nH]n1)NC(=O)c1cc[nH]n1,-9,1.75
C[C@@H]1CC[C@H](C(=O)O)CN1C(=O)OC(C)(C)C,-6,0.97
COc1ccccc1S(=O)(=O)N1CCC(Oc2cc(C)n(C)c(=O)c2)CC1,-10,1.73
Cc1cc(C)n(CCC(=O)N2CCC3(CC2)C[C@@H](C(=O)NCc2ccccn2)N(C)C3)n1,-14,1.77
CCCc1nnsc1C(=O)N1CC[C@@]2(CCCN(CC3CC3)C2=O)C1,-10,1.84
Cc1ccc(F)c(S(=O)(=O)N2CCC3(CC2)CC(=O)N(CC(C)C)C3)c1,-8,1.3
CCOC(=O)c1n[nH]cc1-c1c(-c2ccccc2)ncn1Cc1cc(C)n[nH]1,-13,1.63
OC1=Nc2c(ncn2-c2cccnc2)[C@@H](c2ccc(F)c(F)c2)C1,0,-0.05
Cc1ccc(CN(CC(=O)Nc2ccc(Br)cn2)C(C)C)o1,-3,0.4
COc1ccc(CCc2nc(NC(=O)c3nc(C)sc3C)n[nH]2)cc1OC,71,-9.67
CCOC1CN(S(=O)(=O)Cc2ccn(CC(F)(F)F)n2)C1,-7,1.43
COc1ccc(OCCNc2nc(C)cc(=O)[nH]2)cc1,2,-0.32
CO[C@@]12CC[C@@H](Oc3ccccn3)C[C@@H]1N(C(=O)CC(C)(C)C)CC2,-15,1.44
Clc1cccc([C@@H]2c3cccn3CCCN2Cc2cccc(Oc3ccccc3)c2)c1,-7,1

SMILES,% Inhibition [%],Z score
O=C1N[C@@H](Cc2c[nH]c3ccccc23)C(=O)N[C@H]1CO,-10,1.44
CC1(C)C[C@@H](NC(=O)c2cncc(F)c2)CCO1,-1,0.14
O=C(NCCOc1ccc2c(c1)OCO2)c1ccn2ccnc2c1,22,-2.61
CCOC(=O)c1sc(NC)nc1C(F)(F)F,40,-5.15
Cc1nc(N)nc(NC[C@@H](C(C)C)N(C)C)c1Cl,16,-2.15
CN1CCC2OCCN(Cc3coc(-c4ccc(F)cc4)n3)C2C1 (stereo unspecified),-8,0.9
Cc1noc(C)c1CN(C)S(=O)(=O)c1cc(Cl)cc(C(=O)O)c1C,-8,1.02
O=C(COc1ccccc1)N1CCCN(c2nc3ccccc3nc2-c2ccccc2)CC1,-3,0.35
COc1ccc(C(=O)N(CCO)CCN2CCOCC2)c(OC2CCCC2)c1,34,-0.44
Cc1cc2ncc(Br)cc2nc1O,-3,0.38
COC(C(=O)N1C[C@H](C(=O)O)[C@@H](c2ccc(Br)cc2)C1)C1CC1 (stereo partly specified),-1,0.13
CCOc1nc2c(c(C)nn2-c2ccccc2)c(C)c1CCC(=O)N1CCN(c2ccccn2)CC1,9,-1.29
COCCc1nsc(NCc2cccnc2)n1,1,-0.12
C[C@]1(C(=O)O)Nc2ccccc2-c2nc(=O)c(-c3ccccc3)nn21,31,-0.82
O=C(NCCN1CCCC[C@@H]1CO)c1ncccc1O,-19,1.72
Cc1nnc2ccc(S(=O)(=O)N(Cc3ccc(F)cc3)c3cccc(Cl)c3)cn12,32,-0.34
CC1CCC(C)N1C(C)C(=O)Nc1ccc2c(c1)CCN2C(N)=O (stereo unspecified),-10,1.23
Cc1ccc2ncn(CCCn3ccnc3C(C)C)c(=O)c2c1,-5,0.79
CC(C)n1[nH]c(=O)c2c1NC(=O)C[C@@]21C(=O)Nc2c(Cl)cc(Cl)cc21,-12,1.54
Cc1cccc(NCC[C@H](O)C(C)C)n1,6,-0.92
CCN(Cc1cnc2ccccn12)C(=O)NCc1ccc(OC)cc1,-2,0.3
CN(Cc1cc2ccccc2[nH]1)C(=O)[C@@H](O)c1ccccc1,-13,1.14
Cc1ccc(NC(=O)c2cc(-c3cnn(-c4ccc(C(C)C)cc4)c3C)nc3ccccc23)c(Cl)c1,-4,0.56
Cc1c(C(=O)N2Cc3ccccc3N(C)C[C@@H]2C)cnn1C(C)C,-10,1.9
Cc1cc(C)nc(C(C#N)C(=O)C2CC2c2c(F)cccc2F)n1 (stereo unspecified),3,-0.57
Cc1noc(C)c1CN(C)C(=O)[C@H]1CCCN(S(C)(=O)=O)C1,-10,1.51
